Measured values from PubChem BioAssay (NCI).
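Compound exposure: 48 hours, 5 concentrations, 96-well plates. Abbreviation: GI50, concentration required for 50% inhibition of growth.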 For part of its entries the source gives two or more results. Only these are listed. There may be further records. For part of these data: The tests behind the records often covered other concentration ranges, not given here; some values may only mark the edge of a range. For part of these data: Results that share an entry are repeats across runs, samples, wells, individuals or studies. What stands in brackets tells the records apart. Letters hold for one entry only.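 The concentration for full growth arrest is given as TGI.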

How the values were obtained:
Test in all cases: growth of human tumour cells (NCI), 48 h
A498 renal = tested on: A498 renal
NCI-H522 lung = tested on: NCI-H522 lung
IGROV1 ovarian = tested on: IGROV1 ovarian
NCI-H226 lung = tested on: NCI-H226 lung
SNB-19 CNS = tested on: SNB-19 CNS
EKVX NSCLC = tested on: EKVX NSCLC
OVCAR-4 ovarian = tested on: OVCAR-4 ovarian
CCRF-CEM leukemia = tested on: CCRF-CEM leukemia
COLO 205 colon = tested on: COLO 205 colon
U251 CNS = tested on: U251 CNS

SMILES: Cc1ccc(NS(=O)(=O)c2cccc(C#N)c2)c2[nH]cc(C#N)c12
- GI50 (A498 renal): 1.31 µM [sample A, mean of 3 tests] and 90.3 nM [sample B, mean of 2 tests]
- GI50 (NCI-H522 lung): 132 nM [sample A, mean of 3 tests] and 13.4 µM [sample B, mean of 2 tests]
- GI50 (IGROV1 ovarian): 37.9 nM [sample A, mean of 3 tests] and 634 nM [sample B, mean of 2 tests]

SMILES: COC(=O)C12OCC34C(CC5C(C)C6=CC(=O)OC6=CC5(C)C3C(O)C1O)OC(=O)C(O)C24 (configuration not stated)
- TGI (NCI-H226 lung): 280 nM and 3.11 µM
- TGI (SNB-19 CNS): 755 nM and 9.8 µM
- TGI (EKVX NSCLC): 547 nM and 11.4 µM
- TGI (OVCAR-4 ovarian): 594 nM and 9.61 µM
- TGI (NCI-H522 lung): 177 nM and 1.8 µM
- GI50 (CCRF-CEM leukemia): 35.8 nM [1 test] and 460 nM [mean of 2 tests]
- TGI (CCRF-CEM leukemia): 540 nM [1 test] and 10.4 µM [mean of 2 tests]
- TGI (COLO 205 colon): 739 nM and > 19.6 µM
- TGI (U251 CNS): 607 nM and 11 µM
